The source gives no read counts; variants with many changes may rest on few reads.

B1: LINE1-full (parent)
chain: UACGUAGGUGGUUUUCCCCUGAUAGUGCUAAGGGGGCCUGGAAGUUUGGACUGGGCAGAGCUCAACACAGCGUGGCAAAGUGGCUGUGGCUAGACUGCCUCUCUGGAUUCCUCGUCACUCAGCAGGGCAUCUCUGAGAGAAAUGCC

In this data set the parent is B1. The data set is described as follows: self-cleavage, relative activity (ratio to wild type); higher = more cleavage; in vitro, sequencing; the parent is a self-cleaving ribozyme.
Consider UACGUAGGUGGUCUUCCCCUGAUAGUGCUAAGGGGGCCUGGAAGUUUGGACUGGGCAGAGCUCAACACAGCGUGGCAAAGUGGCUGUGGCUAGACUGCCUCUCUGGAUUCCUCGUCACCCAGCAGGGCAUCCCUGAGAGAAAUGCC [U13C U119C U132C], for which the self-cleavage was determined as 1.77. The value for UACGUAGGUGGUGUUCCCCUGAUAGUGCUAAGGGGGCCUGGAAGUUUGGACUGGGCAGAGCUCAGCACAGCGUGGCAAAGUGGCGGUGGCUAGACUGCCUCUCUGGAUUCCUCGUCACUCAGCAGGGCAUCUCUGAGAGAAAUGCC [U13G A65G U85G] was 0. Under UACGUAGGUGGUGUUCCCCUGAUAGUGCUAAGGGGGCCUGGAAGUUUGGACUGGGCAGAGCUCAACACAGCGUGGCUAAGUGGCUGUGGCUAGACUGCCUCUCUGGAUUCCUCGUCACUCAGCAGGGCUUCUCUGAGAGGAAAGCC [U13G A77U A129U A140G U143A] stands 0.61. Under UACGUAGGUGGUCUUCCCCUGAUAGUGCUAAGGGGGCCUGGAAGUUUGGACUGGGCAGAGCUCAACACAGCGUGGCAAAGUGGCUGUGGCUAGACUGCCUCUCUGGAUUCCUCGUCACUCAGCAGGGCAUCUCCGGGAGAAAUGCC [U13C U134C A136G] stands 1.48; under UACGUAGGUGGUCUUCCCCUGAUAGUGCUAAGGGGGCCUGGAAGUUUGGACUGGGCAGAGCUCAACACAGCGUGGCAAAGUGGCUGUGGCUAGACUGCCUCUCUGGAUACCUCGUCACCCAGCAGGGCAUCUCUGAGAGAAAUGCC [U13C U109A U119C], 1.84. Take UACGUAGGUGGUCUUCCCCUGAUAGUGCUAAGGGGGCCUGGAAGUUUGGACUGGGCAGAGCUCAACACAGCGUGGCAAAGUGGCUGUGGCUAGACUGCCUCUCUGGAUUCCCCGUCACUCAGCAGGGCAUCUCUGGGAGAAACGCC [U13C U112C A136G U143C]: the self-cleavage came to 1.15. The value for UACGUAGGUGGUGUUCCCCUGAUAGUGCUAAGGGGGCCUGGAAGUUUGGACUGGGCAGAGCUCAACACAGCGUGGCAAGGUGGCUGUGGCUAGACAGCCUCUCUGGGUUCCUCGUCACUCAGCAGGGCAUCUCUGAGAGAAAUGCC [U13G A79G U96A A107G] was 0.12; that for UACGUAGGUGGUGUUCCCCUGAUAGUGCUAAGGGGGCCUGGAAGUUUGGACUGGGCGGAGCUCAACACAGCGUGGCAAAGUGGCUGUGGCUAGACUGCCUCUCUGGAUUCCCCGUCACUCAGCAGGGCAUCUCUGAGAGUAAUGCC [U13G A57G U112C A140U] was 1.63; that for UACGUAGGUGGUGUUCCCCUGAUAGUGCUAAGGGGGCCUGGAAGUUUGGACUGGGCAGUGCUCAACACAGCGUGGCAAGGUGGCUGUGGCUAGACUGCCUCUCUGGAUUCCUCGUCACUCAGCAGGGCAUCUCUGAGAGAAAUGCC [U13G A59U A79G] was 0.

Regarding UACGUAGGUGGUCUUCCCCUGAUAGUGCUAAGGGGGCCUGGAAGUUUGGACUGGGCAGAGCUCAACACAGCGUGGCAAAGUGGCUGUGGCUAGACUGCCUCUCUGGAAUCCUCGUCACUCAGCAGGGCAUCUCUGAGAAAAGUGCC [U13C U108A G139A A142G], the self-cleavage amounted to 0.35. Under UACGUAGGUGGUUAUCCCCUGAUUGUGCUAAGGGGGCCUGGAAGUUUGGACUGGGCUGAGCUCAACACAGCGUGGCAAAGUGGUUGUGGCUAGACUGCCUCUCUGGAUUCCUCGUCACUCAGAAGGGCAUCUCUGAGAGAAAUGCC [U14A A24U A57U C84U C123A] stands 0.04. UACGUAGGUGGUCUUCCCCUGAUAGUGCUAAGGGGGCCUGGAAGUUUGGACUGGGCAGAGCUCAACACAGCGUGGCAAAGUGGCUGUGGCUAGACUGCCUCUCUGGAUUCCUCGUCACUCAGCAGGGCACCUCUGAGAGGAAUGCC [U13C U130C A140G]: the self-cleavage amounted to 2.7. The value for UACGUAGGUGGUCUUCCCCUGAUAGUGCUAAGGGGGCCUGGAAGUUUGGACUGGGCAGAGCUCAACACAGCGUGGCAAAGUGGCUGUGGCUAGACUGCCUCUCUGGAUUCCCCGUCACUCAGCAGGGCGUCACUGAGAGAAAUGCC [U13C U112C A129G U132A] was 1.69; that for UACGUAGGUGGUCUUCCCCUGAUAGUGCUAAGGGGGCCUGGAAGUUUGGACUGGGCAGAGCUCAACACAGCGUGGCAAAGUGGCUGUGGCUAGACUGCCUCUCUGGAUUCCCAGUCACUCAGCAGGGCAUCUCUGAGAGAAAUGCC [U13C U112C C113A] was 0.63. Take UACGUAGGUGGUCUUCCCCUGAUAGUGCUAAGGGGGCCUGGAAGUUUGGACUGGGCAGAGCUCAACACAGCGUGGCAAAGUGGCUGUGGCUAGACUGCCUCUCUGGAUUCCCCGUCACUCAGCGGGGCAUCUCUGAGAGAAAUGCC [U13C U112C A124G]: the self-cleavage was determined as 0.8. The value for UACGUAGGUGGUGUUCCCCUGAUAGUGCUAAGGGGGCCUGGAAGUUUGGACUGGGCAGAGCUCAACACAGCGAGGCAAAGUGGCUGUGGCUAGACUGCCUCUCUGGAUUCCUUGCCACUCAGCAGGGCAUCUCUGAGAGAAAUGCC [U13G U73A C113U U115C] was 1.49; that for UACGUAGGUGGUGUUCCCCUGAUAGCGCUAAGGGGGCCUGGAAGUUUGGACUGGGCAGAGCUCAACACAGCGUGGCAAAGUGGCUGUGGCUAGACUGCCUCUCUGGAUUCCUCGUCACUCAGCGGGGCAUCUCUGAGAGAAAUGCC [U13G U26C A124G] was 0.46. Turning to UACGUAGGUGGUGUUCCCCUGAUAGUGCUGAGGGGGCCUGGAAGUUUGGACUGGGCAGAGCUCAACACAGCGUGGCAAAGUGGCUGUGGCUAGACUGCCCCUCUGGAUUCCUCGUCACUCAGCAGGGCAUCUCUGAGAGAAAUGCC [U13G A30G U100C], the self-cleavage turned out to be 1.41.

Turning to UACGUAGGUGGUCUUCCCCUGAUAGUGCUAAGGGGGCCUGGAAGUUUGGACUGGGCAGAGCUCAACACAGCGUGGCAAAGUGGCUGUGGCUAGACUGCCUCUCUGGAAUCCUCGUCACUCAGCAGGGCGUCUCUGAGAGAAAUGCC [U13C U108A A129G], the self-cleavage was 1.7. As for UACGUAGGUGGUUAUCCCCUGGUAGUGCUAAGGGGGCCUGGAAGUUUGGACUGGGCAGAGCUCAACACAGCGUGGCAAAGUGGCUGUGGCUAGACUGCCUCUCUGGGUUCCUCGUCACUCAGCAGGGCAUCUCUGAGAGAAAUGCC [U14A A22G A107G], the self-cleavage was 0.98. Under UACGUAGGUGGUCUUCCCCUGAUAGUGCUAAGGGGGCCUGGAAGUUUGGACUGGGCAGAGCUCAACACAGCGUGGCAAAGUGGCUGUGGCUAGACUGCCUCUCUGGAUUCCUCGUCACUCAGCAGGGCAACCCUGAGGGAAAUGCC [U13C U130A U132C A138G] stands 1.44; under UACGUAGGUGGUUAUCCCCUGAUAGUGCUGAGGGGGCCUGGAAGUUUGGACUGGGCAGAGCUCAACACAGCGUGGCAAAGUGGCUGUGGCUAGACUGCCUCUCAGGAUUCCUCGUCACUCAGCAGGGCAUCUCUGAGAGAAAUGCC [U14A A30G U104A], 1.53. Take UACGUAGGUGGUCUUCCCCUGAUAGUGCUAAGGGGGCCUGGAAGUUUGGACUGGGCAGAGCUCAACACAGCGUGGCAAAGUGGCUGUGGCUAGACUGCCUCUCUGGAUUCCCCGUCACUAAGCAGGGCAUCUCUGAGAGAAAUGCC [U13C U112C C120A]: the self-cleavage came out at 1.39.

As for UACGUAGGUGGUGCUCCCCUGAUAGUGCUAAGGGGGCCUGGAAGUCUGGACUGGGCUGAGCUCAACACGGCGUGGCAAAGUGGCUGAGGCUAGACUGCCUCUCUGGAUUCCUCGUCACUCAGAAGGGCAUCUCUGAGAGAAAUACC [U13G U14C U46C A57U A69G U87A C123A G144A], the self-cleavage came out at 0.32. Under UACGUAGGUGGUUAUCCCCUGGUAGUGCUAAGGGGGCCUGGAAGUUUGGACUGGGCAGAGCUCAACACAGCGUGGCAAAGUGGCUGUGGCUAGACUGCCUCUCUGGAUUCCUCGUCACUCAGCAGGGCAUCUCUGAGGGAGAUGCC [U14A A22G A138G A141G] stands 2.25; under UACGUAGGUGGUUAUCCCCUGAUAGUGCUGAGGGGGCCUGGAAGUUUGGACUGGGCAGAGCUCAACACAGCGUGGCAAAGUGGCUGUGGCUAGACUGCCUCUCUGGAUUCCUCGUCACUCAGCAGGGCAUCCCUGAGAGAAAUGCC [U14A A30G U132C], 0.8; under UACGUAGGUGGUUAUCCCCUGAUUGUGCUAAAGGGGCCUGGAAGUUUGGACUGGGCAGAGCUCAACACAGCGUGGCAAAGUGGCUGUGGCUAGACUGCCUCUCUGGAUUCCUUGUCACUCAGCAGGGCAUCUCUGAGAGAAAUGCC [U14A A24U G32A C113U], 0.69. In the case of UACGUAGGUGGUCUUCCCCUGAUAGUGCUAAGGGGGCCUGGAAGUUUGGACUGGGCAGAGCUCAACACAGCGUGGCAAAGUGGCUGUGGCUAGACUGCCUCUCUGGAAACCUCGUCACUCAGCAGGGCAUCUCUGAGAGAAAUGCC [U13C U108A U109A], the self-cleavage amounted to 0. Under UACGUAGGUGGUGUUCCCCUGUUAGUGCCAAGGGGGCCUGGAGGUUUGGACUGGGCAGAGCUCAACACAGCGUGGCAAAGUGGCUGUGGCUAGACUGCCUCUCUGGAUUCCUCGUCACUCAGCAGGGCAUCCCUGAGAGAAAUGCC [U13G A22U U29C A43G U132C] stands 0; under UACGUAGGUGGUGUUCCCCUGAUAGUGCUAAGGGGGCCUGGAAGUUUGGACUGGGCAGAGCUCAACACAGCGUGGCGGAGUGGCUGUGGCUAGACUGCCUCUCUGGAUUCCUCGUCACUCAGCAGGGCAUCUCUGAGAGAAAUGCC [U13G A77G A78G], 2.12; under UACGUAGGUGGUGGUCCCCUGAUAGUGCUAUGGGCGCCUGGAAGUUUGGACUGGGCAGAGCUCAACACAGCGUGGCAAAGUGGCUGUGGCUAGACUGCCUCUCCGGAUUCCUCGUCACUCAGCAGGGCAUCUCUGAGAGAAAUGCC [U13G U14G A31U G35C U104C], 1.22. Under UACGUAGGUGGUGUCCCCCUGAUAGUGCUAAGGGGGCCUGGGAGUUUGGACUGGGCAGAGCUCAACACAGCGUGGCAAAGUGGCUGUGGCUAGACUGCCUCUCUGGAUUCCUCGUCACUCAGCAGGGCCUCUCUGAGAGAAAUGCC [U13G U15C A42G A129C] stands 0.92; under UACGUAGGUGGUCUUCCCCUGAUAGUGCUAAGGGGGCCUGGAAGUUUGGACUGGGCAGAGCUCAACACAGCGUGGCAAAGUGGCUGUGGCUAGACUGCCUCUCUGGAUUCCCCGUCACUCGGCAGGGCAUCUCUGAGAGAAAUGCC [U13C U112C A121G], 1.41.

Take UACGUAGGUGGUUAUCCCCUGGUAGUGCUAAGGGGGCCUGGAAGUUUGGACUGGGCAGAGCUCAACACAGCGUGGCAAAGUGGCUGUGGCUAGACUGCCUCUCUGGAUUCCUCGUCACUCAGCAGGGCUUCUCUGAGAGAAAUGCC [U14A A22G A129U]: the self-cleavage was determined as 1.15.

Consider UACGUAGGUGGUGUUCCCCUGAUAGUGCUAAGGGGGCCUGGAAGUUUGGACUGGGCAGAGCUCAACACAGCGUGGCAAAGUGGCUGUGGCUAGACUGCCUCUCUGGAUUCCUCGCCACUCAGCGGGGCAUCUCUGAGAGAAAUGCC [U13G U115C A124G], for which the self-cleavage was 0.54.

Regarding UACGUAGGUGGUCUUCCCCUGAUAGUGCUAAGGGGGCCUGGAAGUUUGGACUGGGCAGAGCUCAACACAGCGUGGCAAAGUGGCUGUGGCUAGACUGCCUCUCUGGAUUCCUCGUCACUCAGCAGGGCAUCUCCGAGGGAAAUGCC [U13C U134C A138G], the self-cleavage stood at 0. Under UACGUAGGUGGUGUUCCCCUGAUAGUGCUAAGGGGGCCUGGAAGUUUGGACUGGGCAGAGCUCAUCACAGCGUGGCAAAGUGGCUGUGGCUAGACUGCUUAUCUGGAUUCCUCGUCACUCAGCAGGGCAUCUCUGAGAGAAAUGCC [U13G A65U C99U C101A] stands 0.2. Under UACGUAGGUGGUGUUCCCCUGAUAGUGCUAAGGGGGCCCGGAAGUUUGGACUGGGCUGAGCUCAACACAGCGAGGCAAAGUGGCUGUGGCUAGACUGCCUCUCUGGAUUCCUCGUCACUCAGCAGGGCAUCUCUGAGAGAAAUGCC [U13G U39C A57U U73A] stands 0.09; under UACGUAGGUGGUGUUCCCCUGAUAGUGCUAAGGGGGCCUGGAAGCUUGGACUGGGCAGAGCUCAACACAGCGUGGCAAAGUGGCUGUGGCUAGACUGCCUCUCUGGAUUCCUCGUCUCUCAGCAGGGCAUCUCUGAGAGAAAUGCC [U13G U45C A117U], 0.55.

The values above are taken from the RNAGym collection of RNA variant scans (doi:10.7554/elife.90254).
